This passage reports AUC and IC50 results from the supplement of paper PMC4967469.

IC50 is the fitted dose that halves viability relative to control wells, and lower means more sensitive; fits outside the tested doses are given as limits. AUC, from the same fit, is the share of area under the viability curve across the 256-fold dose range; the more sensitive the line, the further below 1. A top dose marked as inferred is not printed in the source and was worked back from the curve model. Where an entry number is given, a second screen of the drug exists; the two often differ. Some results are limits rather than exact numbers.

Compound in one assay: CS(=O)(=O)N1CCN(Cc2cc3nc(-c4cccc5[nH]ncc45)nc(N4CCOCC4)c3s2)CC1 [GDC0941]
Description: Viability of human cancer cell lines after 72 h of drug (GDSC screen). As to conditions: screen: GDSC drug entry 1058. The procedure: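 Human cancer cell lines in 384-well plates, medium with 10% serum, drug for 72 h over a 256-fold dose range (nine 2-fold or five 4-fold steps up to the top dose). Adherent lines were fixed and stained with the nucleic acid dye Syto60, suspension lines read with resazurin; signal relative to control wells, capped at 0 and 100%. One two-parameter sigmoid per drug and line, fitted in a mixed model over all curves with the slope shared within a line.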
The IC50 is the concentration that gives 50% inhibition. Consider “CAL-120 (breast, adherent, top dose 4 µM)”, for which the AUC came out at 0.918 and the IC50 was more than 4000 nM.

As to “CAPAN-1 (pancreas, adherent, top dose 4 µM)”, the AUC amounted to 0.918 and the IC50 was more than 4000 nM.

With CAS-1 (glioma, adherent, top dose 4 µM), the AUC came out at 0.928 and the IC50 is more than 4000 nM.

Consider “CCF-STTG1 (glioma, adherent, top dose 4 µM)”, for which the AUC was 0.804 and the IC50 is 2010 nM.

As to “CCK-81 (large intestine, adherent, top dose 4 µM)”, the AUC worked out at 0.903 and the IC50 is more than 4000 nM.

Take “CCRF-CEM (lymphoblastic leukaemia, suspension, top dose 4 µM)”: the AUC came out at 0.815 and the IC50 was found to be 1760 nM.

As to “CESS (acute myeloid leukaemia, suspension, top dose 4 µM)”, the AUC came to 0.966 and the IC50 is more than 4000 nM.

In the case of “CFPAC-1 (pancreas, adherent, top dose 4 µM)”, the AUC came out at 0.944 and the IC50 was more than 4000 nM.

On to “CGTH-W-1 (thyroid, adherent, top dose 4 µM)”, for which the AUC was 0.793 and the IC50 was determined as 1810 nM.

In the case of “CHL-1 (melanoma, adherent, top dose 4 µM)”, the AUC turned out to be 0.56 and the IC50 came to 362 nM.

On to “CHP-126 (neuroblastoma, suspension, top dose 4 µM)”, for which the AUC is 0.939 and the IC50 is more than 4000 nM.

Consider “CHP-134 (neuroblastoma, suspension, top dose 4 µM)”, for which the AUC was determined as 0.87 and the 50% inhibitory concentration (IC50) is more than 4000 nM.

As for “CHP-212 (neuroblastoma, adherent, top dose 4 µM)”, the AUC came out at 0.554 and the IC50 is 347 nM.

For the cell line “CHSA0011 (chondrosarcoma, adherent, top dose 4 µM)”, the AUC was determined as 0.86 and the half-maximal inhibitory concentration (IC50) is more than 4000 nM.

For “CHSA0108 (chondrosarcoma, adherent, top dose 4 µM)”, the AUC came to 0.621 and the IC50 was 568 nM.

Turning to “CHSA8926 (chondrosarcoma, adherent, top dose 4 µM)”, the AUC was determined as 0.668 and the IC50 stood at 895 nM.

Turning to “CMK (acute myeloid leukaemia, suspension, top dose 4 µM)”, the AUC was found to be 0.929 and the IC50 was more than 4000 nM.

“CML-T1 (chronic myeloid leukaemia, suspension, top dose 4 µM)”: the AUC was determined as 0.939 and the IC50 was more than 4000 nM.

As to “COLO-205 (large intestine, suspension, top dose 4 µM)”, the AUC was found to be 0.543 and the IC50 was 327 nM.

For the cell line “COLO-320-HSR (large intestine, suspension, top dose 4 µM)”, the AUC is 0.711 and the IC50 came to 896 nM.

For the cell line “COLO-668 (small cell lung carcinoma, adherent, top dose 4 µM)”, the AUC was 0.982 and the IC50 was more than 4000 nM.

For “COLO-678 (large intestine, semi-adherent, top dose 4 µM)”, the AUC was determined as 0.954 and the IC50 was more than 4000 nM.

For the cell line “COLO-679 (melanoma, adherent, top dose 4 µM)”, the AUC was determined as 0.972 and the IC50 was more than 4000 nM.

As for “COLO-680N (oesophagus, adherent, top dose 4 µM)”, the AUC was found to be 0.973 and the IC50 was more than 4000 nM.

As to “COLO-684 (endometrium, suspension, top dose 4 µM)”, the AUC was 0.504 and the half-inhibitory concentration (IC50) was 256 nM.

For the cell line “COLO-783 (melanoma, adherent, top dose 4 µM)”, the AUC is 0.987 and the IC50 was more than 4000 nM.

With “COLO-800 (melanoma, adherent, top dose 4 µM)”, the AUC came to 0.842 and the IC50 is 2690 nM.

Regarding “COLO-824 (breast, adherent, top dose 4 µM)”, the AUC turned out to be 0.943 and the IC50 was more than 4000 nM.

As for “COR-L23 (large cell lung carcinoma, adherent, top dose 4 µM)”, the AUC was 0.865.

Take “COR-L88 (small cell lung carcinoma, adherent, top dose 4 µM)”: the AUC was 0.97 and the IC50 was more than 4000 nM.

For “COR-L95 (small cell lung carcinoma, adherent, top dose 4 µM)”, the AUC is 0.939 and the IC50 is more than 4000 nM.

Regarding “COR-L279 (small cell lung carcinoma, suspension, top dose 4 µM)”, the AUC was found to be 0.913 and the IC50 is more than 4000 nM.

For the cell line “COR-L321 (lung, suspension, top dose 4 µM)”, the AUC stood at 0.988 and the IC50 is more than 4000 nM.

With “CP50-MEL-B (melanoma, adherent, top dose 4 µM)”, the AUC amounted to 0.874 and the IC50 is 3790 nM.

Take “CP66-MEL (melanoma, adherent, top dose 4 µM)”: the AUC was determined as 0.868 and the IC50 is more than 4000 nM.

For “CPC-N (small cell lung carcinoma, suspension, top dose 4 µM)”, the AUC amounted to 0.792 and the IC50 was 2000 nM.

Take “CRO-AP2 (B-cell lymphoma, suspension, top dose 4 µM)”: the AUC turned out to be 0.75 and the IC50 was determined as 1160 nM.

Turning to CS1 (bone, adherent, top dose 4 µM), the AUC turned out to be 0.825 and the IC50 turned out to be 2790 nM.

Take “CTB-1 (B-cell lymphoma, suspension, top dose 4 µM)”: the AUC was 0.733 and the IC50 was 1500 nM.

Regarding “CTV-1 (acute myeloid leukaemia, suspension, top dose 4 µM)”, the AUC was 0.761 and the IC50 was determined as 1170 nM.

For the cell line “CW-2 (large intestine, adherent, top dose 4 µM)”, the AUC is 0.973 and the IC50 is more than 4000 nM.

As to “Ca9-22 (head and neck, adherent, top dose 4 µM)”, the AUC was determined as 0.923 and the IC50 is more than 4000 nM.

For “Ca-Ski (cervix, adherent, top dose 4 µM)”, the AUC was 0.664 and the IC50 stood at 760 nM.

As to “CaR-1 (large intestine, adherent, top dose 4 µM)”, the AUC amounted to 0.805 and the IC50 turned out to be 3390 nM.

Take Caov-4 (ovary, adherent, top dose 4 µM): the AUC is 0.972 and the concentration for half-maximal inhibition (IC50) is more than 4000 nM.

For the cell line “Capan-2 (pancreas, adherent, top dose 4 µM)”, the AUC stood at 0.949 and the IC50 was more than 4000 nM.

As to “ChaGo-K-1 (non-small cell lung carcinoma, adherent, top dose 4 µM)”, the AUC worked out at 0.96 and the IC50 was more than 4000 nM.

For “D-247MG (glioma, adherent, top dose 4 µM)”, the AUC came out at 0.87 and the IC50 is more than 4000 nM.

Take “D-263MG (glioma, adherent, top dose 4 µM)”: the AUC was 0.615 and the IC50 is 555 nM.

For “D-283MED (medulloblastoma, adherent, top dose 4 µM)”, the AUC was 0.757 and the IC50 was 1270 nM.

As for “D-392MG (glioma, adherent, top dose 4 µM)”, the AUC was 0.916 and the IC50 is more than 4000 nM.

With “D-423MG (glioma, adherent, top dose 4 µM)”, the AUC is 0.711 and the half-inhibitory concentration (IC50) was 1140 nM.

For “D-502MG (glioma, adherent, top dose 4 µM)”, the AUC turned out to be 0.726 and the IC50 was 1600 nM.

As for “D-542MG (glioma, adherent, top dose 4 µM)”, the AUC was determined as 0.863 and the IC50 was more than 4000 nM.

Consider “D-566MG (glioma, adherent, top dose 4 µM)”, for which the AUC came to 0.787 and the IC50 is 1710 nM.

For the cell line “DAN-G (pancreas, adherent, top dose 4 µM)”, the AUC worked out at 0.838 and the IC50 is 2230 nM.

Turning to “DB (B-cell lymphoma, suspension, top dose 4 µM)”, the AUC was found to be 0.887 and the IC50 is more than 4000 nM.

Take “DBTRG-05MG (glioma, adherent, top dose 4 µM)”: the AUC was determined as 0.913 and the IC50 was more than 4000 nM.

On to “DEL (lymphoid neoplasm, suspension, top dose 4 µM)”, for which the AUC stood at 0.994 and the IC50 was more than 4000 nM.

Regarding “DG-75 (Burkitt lymphoma, suspension, top dose 4 µM)”, the AUC was 0.746 and the IC50 was found to be 1280 nM.

Turning to “DIFI (large intestine, adherent, top dose 4 µM)”, the AUC was 0.682 and the IC50 worked out at 826 nM.

DJM-1 (skin, adherent, top dose 4 µM): the AUC is 0.91 and the half-inhibitory concentration (IC50) is more than 4000 nM.

As to DK-MG (glioma, adherent, top dose 4 µM), the AUC worked out at 0.821 and the IC50 is more than 4000 nM.

Take “DMS-79 (small cell lung carcinoma, suspension, top dose 4 µM)”: the AUC was 0.945 and the concentration for half-maximal inhibition (IC50) is more than 4000 nM.

On to “DMS-114 (small cell lung carcinoma, adherent, top dose 4 µM)”, for which the AUC was determined as 0.836 and the IC50 is 3250 nM.

Still in this assay, the particulars now being: top dose 4 µM; screen: GDSC drug entry 1527; top dose inferred.
Consider “COR-L32 (small cell lung carcinoma, suspension)”, for which the AUC is 0.77 and the IC50 turned out to be 3710 nM.
